# Test results published in PubChem BioAssay AID686978 (National Center for Advancing Translational Sciences (NCATS), 2013).
# Screen size: about 420,000 compounds; about 64,000 (15%) were called active. Inconclusive results, whose numbers are uncertain, are shown with a selection of clear calls. The call rests on the fitted dose curve; in most records, active means well fitted inhibition curve with a large enough effect; inconclusive means small, poorly fitted or top-dose-only effect; inactive means flat fitted curve, though single readings scatter. Potencies of inconclusive entries are left out as doubtful fits.
# Assay: qHTS for Inhibitors of human tyrosyl-DNA phosphodiesterase 1 (TDP1): qHTS in cells in absence of CPT; further: nearly all actives have a fitted effect of over 55% in size
# Conditions: DT40 Tdp1-/- hTDP1 cells, no CPT, ATP luminescence, 48 h; activity change, negative = growth inhibition: at 46.2 µM (top of the series) unless noted
# Method in brief: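 Chicken DT40 Tdp1-/- cells complemented with human TDP1, screened without camptothecin (DMSO vehicle only), 400 cells/well. Compounds pin-transferred, cells incubated at 37 °C for at least 48 hr. Growth read as ATP-dependent luminescence (CellTiter-Glo, 30 min at RT).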
# On the % scale 0 is the no-effect control and ±100 the full control effect; potency means the concentration at half of the fitted maximal effect; tags describe the fitted curve by direction and shape.
Structure (SMILES),Potency,"activity change, negative = growth inhibition"
COc1ccc(OCCn2c(C)c(/C=N/n3cnnc3)c3ccccc32)cc1,"inconclusive [inhibitor, single point]",–
COc1ccccc1NC(=O)c1c(NCc2sccc2C)sc2c1CCCCC2,"inconclusive [inhibitor, single point]",–
NC(=O)N/N=C/C=C/c1ccc(F)cc1,inactive,–
COc1ccc(C(CNC(=O)COc2ccc(C)cc2)N2CCCCC2)cc1 (stereo not drawn),"inconclusive [inhibitor, single point]",–
COc1ccc(NS(=O)(=O)c2cc(NC(=O)C3=NN(c4ccccc4)C(=O)CC3)ccc2C)cc1,inactive,–
Cc1cccc(Nc2ncnc3nc[nH]c23)c1C,inactive,–
CC(=O)N(c1cc(C)ccc1C)c1ccccc1[N+](=O)[O-],"inconclusive [inhibitor, partial curve]",–
COc1cc2cc(CCCOC(=O)CCCC(=O)O)oc(=O)c2cc1OC,inactive,–
Cc1cc(O)c(-c2cc(C(=O)Nc3cccnc3)[nH]n2)cc1C,"inconclusive [inhibitor, single point]",–
Cn1cc(CN2CCN(c3cnccn3)CC2)c(-c2cccc(Cl)c2)n1,"inconclusive [inhibitor, single point]",–
O=C1CCc2cc(S(=O)(=O)Nc3ccccc3F)cc3c2N1CCC3,inactive,–
CC(Sc1ccc(Cl)cc1)C(=O)NNC(=O)c1ccco1 (stereo not drawn),inactive,–
Clc1ccc(C2CC(c3cccs3)n3ncnc3N2)cc1Cl (stereo not drawn),inactive,–
Cc1ccc(NS(=O)(=O)c2ccc(Cl)nc2)c(C)c1,inactive,–
COc1ccc2c(CNCc3ccc(C)o3)c(C(=O)O)n(Cc3ccccc3)c2c1,"inconclusive [inhibitor, single point]",–
COc1ccc(C(=O)N2CCN(CCNC(=O)C(=O)Nc3ccc(F)cc3)CC2)cc1,"inconclusive [inhibitor, partial curve]",–
COc1cccc(NS(=O)(=O)c2ccc3c(c2)N(C(C)=O)CCS3)c1,"inconclusive [inhibitor, partial curve, poor fit]",–
COC(=O)CSc1nc(C)cc(C(F)(F)F)c1C#N,inactive,–
CC1(C(=O)NS(=O)(=O)C2CC2)CCN(C(=O)c2ccccc2OC(F)(F)F)C1 (stereo not drawn),inactive,–
CCC(=O)c1cn(CC(=O)Nc2ccccc2F)c2ccccc12,inactive,–
CC1(C)CC2(CC(c3ccccc3)c3ccc(O)cc3O2)NC(=S)N1 (stereo not drawn),active: 9.2 µM,–
Cc1cccc(-n2ncc3c(N4CC(C)CC(C)C4)ncnc32)c1 (stereo not drawn),"inconclusive [inhibitor, single point]",–
Cc1ccc(N(Cc2ccc(C(=O)NCCSc3ccccn3)cc2)S(C)(=O)=O)cc1C,"inconclusive [inhibitor, partial curve]",–
Cc1nc([N+](=O)[O-])c(N2CCN(Cc3ccccc3)CC2)n1Cc1ccccc1,"inconclusive [inhibitor, single point]",–
CN(C)/C=C/C(=O)c1cccc([N+](=O)[O-])c1,inactive,–

Structure (SMILES),Potency,"activity change, negative = growth inhibition"
COc1ccc(-c2ccc3c(N)c(C(=O)NC(C)C)sc3n2)cc1OC,active: 16.4 µM,–
CCOc1ccc2nc(N3CCC(C(=O)NC4CCCCC4)CC3)sc2c1,"inconclusive [inhibitor, single point]",–
COCCN(C(=S)Nc1ccc(C(C)C)cc1)C(C)c1cccs1 (stereo not drawn),"inconclusive [inhibitor, single point]",–
O=[N+]([O-])c1cc([N+](=O)[O-])c(Oc2cc(Cl)ccc2Cl)cc1NC1CCCCCCC1,"inconclusive [inhibitor, single point]",–
CC1CC(NC(=O)c2cnc3n(c2=O)CCS3)CC(C)(C)C1 (stereo not drawn),"inconclusive [inhibitor, partial curve]",–
O=C(Cn1c(=O)[nH]c2ccccc2c1=O)N1CCN(Cc2ccc3c(c2)OCO3)CC1,–,inconclusive: -32.8% [inhibitor]
CCOc1ncccc1C(=O)OCC(=O)c1cc(OC)c(OC)c(OC)c1,inactive,–
O=C1C(=Nc2cccc(Cl)c2)CC(c2ccc(Cl)cc2)N1c1cccc(Cl)c1 (stereo not drawn),"inconclusive [inhibitor, single point]",–
O=C(Cn1cc(C(F)(F)F)ccc1=O)N/N=C/c1ccccc1O,active: 7.31 µM,–
CN(C)S(=O)(=O)n1cc(/C=C(\NC(=O)c2ccccc2F)C(=O)N2CCCCC2)c2ccccc21,–,inconclusive: -31.4% [inhibitor]
CCOc1cc(-c2nc(-c3ccc(-c4ccc(C)cc4)nc3OC)no2)cc(OCC)c1OCC,"inconclusive [inhibitor, single point]",–
CN(C)S(=O)(=O)c1ccc(N2CCCC2)c(C(=O)NCc2cccc(C(F)(F)F)c2)c1,"inconclusive [inhibitor, partial curve]",–
Cc1ccc(Cl)cc1N1CCN(C(=O)C2CCN(S(C)(=O)=O)CC2)CC1,active: 5.8 µM,–
Cc1ccc(C(=O)NC(=S)NNC(=O)c2ccccc2O)cc1,"inconclusive [inhibitor, single point]",–
COc1ccc(NC(=O)Cn2ccc3c(OC)cccc3c2=O)cc1,inactive,–
CC1CCCC(n2c(=S)[nH]c3ccccc3c2=O)C1C (stereo not drawn),"inconclusive [inhibitor, single point]",–
COc1ccc(NC(=O)CSc2nnc(CN3CCOCC3)n2C)cc1Cl,inactive,–
O=C(OC1CCOC1=O)C1CCN(S(=O)(=O)c2c(Cl)cccc2Cl)CC1 (stereo not drawn),inactive,–
CCOC(=O)c1ccc(NC(=O)c2cc3cc(C)ccc3n2C)cc1,"inconclusive [inhibitor, single point]",–
C=CCNC(=S)NNC(=O)COc1cccc(Cl)c1,"inconclusive [inhibitor, partial curve, poor fit]",–
CCO[C@H]1OC(C(=O)N2CCN(Cc3ccc4c(c3)OCO4)CC2)=C[C@@H](C(C)(C)C)[C@@H]1CCCO,"inconclusive [inhibitor, single point]",–
Cc1sc(NC(=S)NC(=O)c2ccccc2)c(C#N)c1C,"inconclusive [inhibitor, single point]",–
Cc1ccc2nc(SCC(=O)c3c[nH]c4ccccc34)[nH]c2c1,"inconclusive [inhibitor, partial curve]",–
COC(=O)c1ccc(Cl)cc1NC(=O)N1CC(C)Oc2ccccc21 (stereo not drawn),"inconclusive [inhibitor, single point]",–
COc1ccc(/C=C2\SC(=NCc3ccccc3)N(Cc3ccccc3)C2=O)cc1OC,"inconclusive [inhibitor, single point]",–

Structure (SMILES),Potency,"activity change, negative = growth inhibition"
Fc1ccc(CNCCC(Cc2ccccc2)c2ccco2)cc1 (stereo not drawn),"inconclusive [inhibitor, single point]",–
CSc1ccc(CN2CCC(CO)(Cc3ccc(Cl)cc3)CC2)cc1,active: 18.4 µM,–
C=CCNC(=O)c1cn(CC)c2cc(N3CCN(C(=O)c4ccco4)CC3)c(F)cc2c1=O,active: 14.6 µM,–
COc1ccc(-c2cc(C(=O)N3CCN(c4ncccn4)CC3)c3ccccc3n2)c(OC)c1,active: 23.1 µM,–
COc1ccccc1/C=C/C(=O)N1CCOCC1,inactive,–
Cc1cccc(-n2ncc3c(NCCN4CCOCC4)ncnc32)c1,"inconclusive [inhibitor, single point]",–
COC(=O)C1=C(C(=O)OC)[C@@H]2N(C)c3ccc(OC)cc3[C@@]23C[C@@H](C(=O)OC)N(C(=O)c2cc(C)oc2C)C3=N1,"inconclusive [inhibitor, single point]",–
COc1ccc([N+](=O)[O-])cc1NC(=O)C(C)OC(=O)C1CCC1 (stereo not drawn),inactive,–
COc1ccc(NC(=O)c2nc3nccc(C)n3n2)cc1S(=O)(=O)N1CCOCC1,inactive,–
Cc1cc(NS(=O)(=O)c2ccc(NC(=O)COc3ccc(Cl)cc3)cc2)nc(C)n1,"inconclusive [inhibitor, single point]",–
CCN(CC)S(=O)(=O)c1nnc(NC(=O)COc2ccc(C)cc2)s1,"inconclusive [inhibitor, single point]",–
O=C1OC(NC(=O)c2ccccc2)C(N2CCOCC2)=C1Cl (stereo not drawn),inactive,–
Cc1ccc(NC(=S)NNC(=S)NCc2ccccc2)cc1,inactive,–
Cc1cccc(NC(=O)C2CCN(C(=O)c3ccccc3C)CC2)n1,inactive,–
CC(=O)Nc1ccc(NC(=O)CCc2c(C)nc3c(c(C)nn3-c3ccc(C)cc3)c2C)cc1,"inconclusive [inhibitor, partial curve]",–
CC(C(=O)OCC(=O)NC1CCCC1)N1C(=O)c2ccccc2C1=O (stereo not drawn),inactive,–
COc1cccc(C=Nc2ccc(N3CCOCC3)cc2)c1O,"inconclusive [inhibitor, single point]",–
CN(C)c1ccc(/C=C/CNC[C@H]2O[C@@H](n3ccc(N)nc3=O)[C@H](O)[C@@H]2O)cc1,inactive,–
CCOc1ccc(NC(=O)c2ccc(CN3C(=O)C(C)=C(c4ccc(C)cc4)S3(=O)=O)cc2)cc1,"inconclusive [inhibitor, partial curve]",–
O=C(Nc1ccc(F)cc1Cl)c1ccc2c(=O)n3c(nc2c1)CCCCC3,"inconclusive [inhibitor, partial curve]",–
CCCn1c(=N)n(CC(=O)c2ccco2)c2ccccc21,inactive,–
CCN(c1ccccc1)S(=O)(=O)c1ccc(Cl)c(NC(=O)CN(C)Cc2cccc(F)c2)c1,active: 18.4 µM,–
O=C(NCc1ccccc1)c1ccc([N+](=O)[O-])cc1,inactive,–
